Reference: patent publication US4469706A, “Selective beta-2 adrenergic antagonists for the treatment of glaucoma” (priority 1982, dated 1984)

System: lung adenylate cyclase
Test: Lung adenylate cyclase activation and inhibition
Format: biochemical, mammalian
Conditions: for Ki: antagonists, Table I column F, ** data from the present inventor, method (a)

| Compound | β2/β1 potency ratio (Ki heart/Ki lung) (adenylate cyclase Ki values) | Ki [µM] |
| --- | --- | --- |
| COc1ccc(OC)c(C(O)C(C)NC(C)(C)C)c1 (stereo not drawn) [Butoxamine] | 3.3 | 4.5 |
| CC(C)(C)NCC(O)CON=C1c2ccccc2-c2ccccc21 (stereo not drawn) [IPS 339, (t-butyl-amino 3-ol-2-propyl) oximino-9 fluorene, hydrochloride] | – | 0.09 |

Counter-ions that a name gives are not always drawn.
